Hit rate of the full screen: of about 310,000 compounds, about 2,200 (0.71%) showed an effect of 50% or more. Effects have a minus sign here. The list shows a part of the results.
Biological target: human ether-à-go-go-related gene (hERG) potassium channel (human, UniProt Q12809)
Assay: primary screen, population patch clamp on CHO cells stably expressing hERG

Chain of human ether-à-go-go-related gene (hERG) potassium channel (Q12809 whole entry, looked up): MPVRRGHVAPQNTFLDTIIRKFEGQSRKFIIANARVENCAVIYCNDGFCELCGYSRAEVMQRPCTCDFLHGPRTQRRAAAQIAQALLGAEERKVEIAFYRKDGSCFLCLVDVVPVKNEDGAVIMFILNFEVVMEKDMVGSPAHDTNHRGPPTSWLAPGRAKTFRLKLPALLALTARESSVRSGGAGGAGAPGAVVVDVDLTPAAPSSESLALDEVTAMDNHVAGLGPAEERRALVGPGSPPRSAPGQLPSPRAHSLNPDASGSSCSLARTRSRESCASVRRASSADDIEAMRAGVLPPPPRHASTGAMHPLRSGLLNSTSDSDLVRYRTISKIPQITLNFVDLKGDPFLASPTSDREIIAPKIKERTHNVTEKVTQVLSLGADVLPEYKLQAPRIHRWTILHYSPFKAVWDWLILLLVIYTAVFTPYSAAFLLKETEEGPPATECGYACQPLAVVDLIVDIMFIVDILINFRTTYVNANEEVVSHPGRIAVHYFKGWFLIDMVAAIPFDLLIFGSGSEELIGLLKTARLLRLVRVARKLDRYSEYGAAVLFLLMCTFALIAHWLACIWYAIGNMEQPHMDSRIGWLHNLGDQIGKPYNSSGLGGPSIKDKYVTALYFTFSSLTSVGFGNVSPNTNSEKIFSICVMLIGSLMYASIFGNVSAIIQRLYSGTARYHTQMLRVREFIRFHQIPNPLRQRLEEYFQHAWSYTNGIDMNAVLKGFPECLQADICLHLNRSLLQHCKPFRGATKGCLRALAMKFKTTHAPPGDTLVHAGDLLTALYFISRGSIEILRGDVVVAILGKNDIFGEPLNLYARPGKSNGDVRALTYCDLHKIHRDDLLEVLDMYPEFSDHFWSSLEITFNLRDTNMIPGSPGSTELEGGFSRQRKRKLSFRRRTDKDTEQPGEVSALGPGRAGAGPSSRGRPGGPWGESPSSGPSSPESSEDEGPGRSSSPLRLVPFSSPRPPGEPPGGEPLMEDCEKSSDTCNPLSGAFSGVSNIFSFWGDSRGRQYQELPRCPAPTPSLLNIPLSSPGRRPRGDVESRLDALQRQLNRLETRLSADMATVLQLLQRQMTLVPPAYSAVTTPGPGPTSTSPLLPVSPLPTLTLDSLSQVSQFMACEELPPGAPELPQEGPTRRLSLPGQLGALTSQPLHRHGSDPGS

Row | SMILES | hERG current change (%, negative = inhibition) at 1uM [%]
1 | CCCN(CCC)c1ccc(C(O)c2nnc(-c3ccccc3)o2)cc1 (centres unmarked) | 2.97
2 | CC1=C(C(=O)N2CCN(C(=O)c3ccco3)CC2)C2(CCC(C)CC2)OC1=O (centres unmarked) | -20
3 | O=C(c1cccc(F)c1F)N1CCCc2ccccc21 | 17.1
4 | O=C(Oc1cccc2cccnc12)c1ccco1 | -5.44
5 | COC(=O)c1c(NC(=O)Cn2nc(C(F)F)cc2C(F)F)sc(C)c1C | 11.6
6 | COc1ccc(Nc2cc3n(c(=O)n2)CCc2cc(OC)c(OC)cc2-3)c(C)c1 | 12.6
7 | Cn1c(C(=O)NCCN2CCCCCC2)cc2c(=O)n(C)c3ccccc3c21 | -2.61
8 | CCCCn1c(SCC(=O)N(C)C)nnc1-c1ccncc1 | 3.11
9 | Cc1cc2c(cc1C)NC(c1cccnc1)C1=C(CC(C)(C)CC1=O)N2 (centres unmarked) | 15.8
10 | CC(C)N(Cc1nc(-c2ccccc2)no1)C(=O)CSc1ccccc1 | 6.18
11 | CC(C)CN(C(=O)c1cccc(Cl)c1)c1c(N)n(CC(C)C)c(=O)[nH]c1=O | 14.3
12 | CC(C)CCNC(=O)NC(=O)COC(=O)/C=C/c1cc(Br)ccc1F | 18.7
13 | CCn1c(CN2CCOCC2)nnc1SCC(=O)Nc1cccc(C)c1 | 5.32
14 | CC(C)C[C@@]12C(=O)N(c3cccc(Br)c3)C(=O)N1[C@H](c1ccc(F)cc1)[C@@H]1C(=O)N(C3CCCCC3)C(=O)[C@@H]12 | 16
15 | Cc1occc1C(=O)N/N=C/c1ccccn1 | 8
16 | COC(=O)c1ccc(/C=N\n2c(C)nnc2C)cc1 | 11.1
17 | NC(=O)c1nsc(C(=O)N(CC(=O)NCc2ccc(F)cc2)Cc2ccco2)c1N | 5.69
18 | COc1ccc(NC(=O)C2CCCCN2N)cc1OCC(C)C.O=C(O)C(=O)O (centres unmarked) | 4.05
19 | COc1ccc(S(=O)(=O)N(CC(=O)NCCC(C)C)c2ccccc2)cc1OC | 6.97
20 | CCc1cc(C(=O)N2CCCC(C(=O)c3ccc(Cl)cc3)C2)no1 (centres unmarked) | 10.4
21 | O=C(N/N=C(/c1ccccc1)c1ccncc1)c1ccc2c(c1)OCO2 | 2.11
22 | O=S(=O)(Nc1nccs1)c1ccc(F)cc1 | 15.5
23 | CCn1c(CNC(=O)c2ccccc2OC)nnc1SCC(=O)c1ccc(F)cc1 | 9.55

Row | SMILES | hERG current change (%, negative = inhibition) at 1uM [%]
24 | CCCOc1ccc(N2C(=O)CC(NNC(=O)c3ccc(COc4ccccc4)o3)C2=O)cc1 (centres unmarked) | 13.8
25 | O=C(Nc1ccc(Br)cc1)c1cc(-c2ccc3c(c2)OCO3)on1 | 22.4
26 | O=S(=O)(c1cccs1)N1CN(CC2CCCO2)c2nc3ccccc3nc21 (centres unmarked) | -0.564
27 | O=c1c(O)c(-c2cccs2)oc2ccc(Cl)cc12 | 0.162
28 | COc1ccc(-c2c(-c3cc(OC)cc(OC)c3)n(C)c3ccc(Br)cc23)cc1 | 13.4
29 | CCOP(=O)(Cc1cc(C(=O)CC)c(C)o1)OCC | 10.6
30 | CCOc1ccc(/C=C2\NC(=S)NC2=O)cc1 | 8.71
31 | CC(C(=O)Nc1ccccc1)C(=O)Nc1ccccc1 | 14.7
32 | Cc1nnc(SCc2nc3sc(C(=O)O)c(C)c3c(=O)[nH]2)s1 | 14.1
33 | COc1nsnc1NS(=O)(=O)c1ccc(NC(=S)NC(=O)c2cccnc2)cc1 | 17.7
34 | CCn1c(=O)cc(SCC(=O)N2CCOCC2)c2ccccc21 | -7.86
35 | O=C(/C=C/c1ccc(Br)cc1)NC1CCCCCC1 | 2.33
36 | COc1ccc(CC(=O)NC(C)c2ccc3ccccc3c2)cc1 (centres unmarked) | 9.53
37 | COc1cc(C(=O)NC(=S)NNC(=O)c2cnccn2)cc(OC)c1OC | 4.57
38 | COc1ccc(N(CC(=O)N/N=C/c2ccc3c(c2)OCO3)S(=O)(=O)c2ccc(NC(C)=O)cc2)cc1 | 17.1
39 | O=S(=O)(NC1=NCCC1)c1cccc(NC(=S)NCCc2ccccc2)c1 | 12.6
40 | COc1ccc(-c2cc(C3CCN(c4ncccc4[N+](=O)[O-])CC3)[nH]n2)cc1 | 4.93
41 | COc1ccc(-c2nc(-c3cccc(C)c3)nc(N3CCN(C)CC3)c2C#N)cc1 | -5.58
42 | CSc1ccccc1NC(=O)Nc1cccc(Cl)c1Cl | 17.3
43 | Cc1cc(C)nc(SC2CCOC2=O)n1 (centres unmarked) | 5.32
44 | O=c1c2cc(Br)ccc2nc(-c2ccc(Cl)cc2)n1O | 16.4
45 | COc1cc(NC(=O)N2c3ccccc3Sc3ccccc32)c(C(=O)O)cc1OC | 18.4
46 | CCCCC(=O)NNC(=O)c1c(O)c2ccccc2[nH]c1=O | 6.2

Row | SMILES | hERG current change (%, negative = inhibition) at 1uM [%]
47 | CC(C)[C@H](NC(=O)c1ccccc1F)C(=O)NCc1ccc(S(N)(=O)=O)cc1 | 13.4
48 | O=C(CC1SC(=Nc2ccccc2)N(CCO)C1=O)Nc1ccccc1 (centres unmarked) | 17.5
49 | COc1ccc(NC(=O)N2CCCc3ccccc32)cc1 | 6.82
50 | Oc1[nH]c2ccccc2c1N=Nc1ccccc1 | 11.2
51 | CCOC(=O)C(=O)NCC(c1cccs1)S(=O)(=O)c1ccc(Cl)cc1 (centres unmarked) | 0.903
52 | C=CCN1C(=O)c2ccccc2C1(O)Cc1ccccc1 (centres unmarked) | 13.7
53 | COCCn1c(SCc2csc(-c3ccccc3)n2)nc2ccccc21 | 13
54 | O=C(Cc1ncc(C(F)(F)F)cc1Cl)NCc1cccnc1 | 11
55 | CCn1c(=O)n(CC)c2cc(S(=O)(=O)Nc3cc(C)cc(C)c3C#N)ccc21 | 1.43
56 | Cc1nc2ccc(Br)cc2c(=O)n1Cc1cccs1 | -7.25
57 | O=C1NC(=O)N(c2ccc3c(c2)OCO3)C(=O)/C1=C\c1ccc(-c2ccccc2C(=O)O)o1 | 11.9
58 | Cc1nc(N2CCN(c3ccccc3)CC2)nc2c1C(=O)CC(C)C2 (centres unmarked) | 16.3
59 | CCc1ccccc1NC(=O)CCCSc1nc2ccccc2s1 | 3.89
60 | Cc1cccc(C)c1NC(=O)CN(C)C(=O)c1ccc(NS(=O)(=O)c2ccc3[nH]c(=O)[nH]c3c2)cc1 | 5.4
61 | COc1ccc(NC(=O)c2ccccc2NC(=O)CN2CCCCCC2)cc1 | 11.8
62 | COc1cc(-c2nc(-c3ccccc3)c(-c3cccs3)[nH]2)cc(OC)c1OC | 5.41
63 | O=S(=O)(CCN1CCSCC1)c1ccccc1 | 16.2
64 | O=c1c(Cc2ccccc2)c(O)nc2n1CCCS2 | 10.2
65 | CC(=O)Nc1ccc(C(=O)OCC(=O)Nc2ccc(N3CCOCC3)cc2)cc1 | 14
66 | CC(=O)N1CCC2(CC1)CC(=O)c1cc(OCC(=O)N3CCN(C)CC3)ccc1O2 | 4.45
67 | CN(C)C1=NC(=O)/C(=C/c2ccc(-c3ccc(S(N)(=O)=O)cc3)o2)S1 | 14.3
68 | COc1cccc(CC2(CO)CCCN(Cc3cc4ccccc4[nH]3)C2)c1 (centres unmarked) | 6.5
69 | O=C(/C=C/c1cccc([N+](=O)[O-])c1)N1CCN(c2ccccc2F)CC1 | -1.15

Row | SMILES | hERG current change (%, negative = inhibition) at 1uM [%]
70 | CN(CCc1cnn(C)c1)Cc1nc(CC2CC2)no1 | -24.3
71 | c1cncc(Nc2c3ccccc3nc3ccccc23)c1 | -6.9
72 | O=C1/C(=C/c2ccccc2)N=C(N2CCOCC2)N1c1cccc(Cl)c1 | 1.65
73 | CCn1ccnc1CN(C)C(=O)c1ccc(OC2CCN(CCc3ccccc3)CC2)cc1 | 7.17
74 | O=C(/C=C/c1ccc(F)cc1)c1ccc(N2CCOCC2)cc1 | 14.1
75 | Cn1cnnc1SCC(=O)Nc1ccc(Br)cc1F | 9.52
76 | Cc1ccc(CSc2nnc(-c3ccncc3)n2N)cc1 | 9.8
77 | COc1ccc(C(=O)Nc2ccnn2C2CCN(Cc3ccccn3)CC2)cc1 | 4.42
78 | O=C(CCc1ccccc1)NCC1OCCc2ccccc21 (centres unmarked) | 7.14
79 | CC1CN(S(=O)(=O)c2cccc(C(=O)NCCC3=CCCCC3)c2)CC(C)O1 (centres unmarked) | 0.227
80 | O=C(c1cccs1)N(Cc1cc2ccccc2[nH]c1=O)c1ccccc1 | -4.14
81 | COc1cccc(C(=O)N2CCN(Cc3ccccn3)CC2)c1OC.O=C(O)C(=O)O | -2.57
82 | CCN(Cc1ccccc1)S(=O)(=O)c1ccc(F)cc1 | 12.5
83 | COc1ccc2c(CC(=O)OCC(=O)NC(=O)c3cccn3C)coc2c1 | 7.31
84 | CN(C[C@H](Cc1ccccc1)N(C[C@H](Cc1ccccc1)N(CCc1cc(C(F)(F)F)cc(C(F)(F)F)c1)N=O)N=O)N=O.[Na+] | 10.1
85 | COc1cccc(CN2CCN(C(=O)c3ccco3)CC2)c1.O=C(O)C(=O)O | 6.67
86 | CCOc1ccc(CN2CCN(C(=O)c3ccccc3)CC2)cc1 | -1.03
87 | C=C(C)Cn1c(-c2cccs2)n[nH]c1=S | 5.03
88 | O=C(NC(=O)c1ccc(Cl)cc1)Nc1cc(N2CCCCC2)ncn1 | 9.32
89 | CCN(c1ccc(NC(=O)CSCc2c(C)noc2C)cc1)C(C)C | 6.49
